Laboratory results from PMC4336329 (PLoS ONE, 2015).
In all, about 310,000 compounds went through this assay and about 2,200 (0.71%) showed an effect of 50% or more. The effect is printed as a negative number. Some of the results follow.

Target: human ether-à-go-go-related gene (hERG) potassium channel (human, UniProt Q12809)
Assay: primary screen, population patch clamp on CHO cells stably expressing hERG

human ether-à-go-go-related gene (hERG) potassium channel, sequence (Q12809 whole entry, looked up): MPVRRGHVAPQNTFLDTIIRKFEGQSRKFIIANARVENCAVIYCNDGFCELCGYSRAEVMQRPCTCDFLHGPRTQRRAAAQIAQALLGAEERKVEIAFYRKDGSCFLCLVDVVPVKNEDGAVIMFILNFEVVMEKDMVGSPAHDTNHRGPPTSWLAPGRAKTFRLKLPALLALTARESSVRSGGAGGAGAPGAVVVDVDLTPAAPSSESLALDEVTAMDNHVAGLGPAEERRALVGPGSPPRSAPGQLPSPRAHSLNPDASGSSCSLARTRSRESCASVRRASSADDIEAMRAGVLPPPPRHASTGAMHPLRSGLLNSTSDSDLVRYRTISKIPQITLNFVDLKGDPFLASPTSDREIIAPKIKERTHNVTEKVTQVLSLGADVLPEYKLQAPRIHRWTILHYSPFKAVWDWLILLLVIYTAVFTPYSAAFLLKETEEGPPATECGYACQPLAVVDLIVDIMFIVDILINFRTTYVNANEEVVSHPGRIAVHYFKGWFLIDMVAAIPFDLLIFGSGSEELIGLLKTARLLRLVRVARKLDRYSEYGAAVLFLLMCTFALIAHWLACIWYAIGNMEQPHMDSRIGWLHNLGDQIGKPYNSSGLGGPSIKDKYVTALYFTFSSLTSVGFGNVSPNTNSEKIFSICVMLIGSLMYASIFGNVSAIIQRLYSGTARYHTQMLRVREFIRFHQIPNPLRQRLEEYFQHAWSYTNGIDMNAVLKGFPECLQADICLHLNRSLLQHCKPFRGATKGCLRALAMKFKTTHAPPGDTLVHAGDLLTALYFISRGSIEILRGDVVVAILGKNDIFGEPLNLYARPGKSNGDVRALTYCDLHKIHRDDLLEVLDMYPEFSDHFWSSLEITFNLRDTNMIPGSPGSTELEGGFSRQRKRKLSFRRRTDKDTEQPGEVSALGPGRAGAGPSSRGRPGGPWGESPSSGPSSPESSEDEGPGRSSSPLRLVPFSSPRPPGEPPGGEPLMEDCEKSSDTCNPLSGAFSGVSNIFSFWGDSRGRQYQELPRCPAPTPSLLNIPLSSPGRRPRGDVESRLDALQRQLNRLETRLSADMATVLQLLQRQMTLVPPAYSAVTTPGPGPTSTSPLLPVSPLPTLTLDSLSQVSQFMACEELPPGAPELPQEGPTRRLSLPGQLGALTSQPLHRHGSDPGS

SMILES | hERG current change (%, negative = inhibition) at 1uM
CC(Oc1ccc(Cl)cc1Cl)c1nc(-c2ccccn2)no1 (stereo not drawn) | 5.44%
CC(=O)Nc1ccc(NC(=O)CCCCCn2nnc3ccccc3c2=O)cc1 | 10.1%
Cc1ccccc1N/C(SCc1ccc(Cl)cc1)=C(/C#N)C(N)=O | 9.03%
COc1ccccc1C(=O)NC(=O)Cn1nc(C)c([N+](=O)[O-])c1C | 5.57%
CC(C)[C@H](NC(=O)c1ccccc1)C(=O)OCC(=O)NCc1ccc(F)cc1 | 7.72%
CCCS(=O)(=O)NCc1cn2c(C)csc2n1 | 6.87%
CC(=O)n1cc([C@H]2C=C(C(=O)N3CCOCC3)O[C@@H](OCCCCO)C2)c2ccccc21 | 18.2%
Cc1cc(C)c2nc(N3CCCN(C(=O)c4ccco4)CC3)c(C#N)cc2c1 | -6.75%
O=S(=O)(c1cccc(-c2csc(-c3cccnc3)n2)c1)N1CCOCC1 | 8.46%
CNS(=O)(=O)c1cccc(C(=O)OCC(=O)N2CCc3ccccc3C2)c1 | 3.36%
O=C(O)CN(c1ccccc1F)S(=O)(=O)c1ccccc1 | 19.4%
Cc1ccc(Nc2nc(-c3c(C)nc4ncccn34)cs2)cc1 | 9.73%
Cc1ccc(S(=O)(=O)N2CC3CCCC2C3)cc1 (stereo not drawn) | 11%
N#C/C(=C(/O)CN1CCN(c2ccccc2F)CC1)c1nc(-c2ccc(Cl)cc2)cs1 | 2.25%
COCCNC(=O)CN(C(=O)CCC(=O)Nc1ccccn1)c1ccc(F)c(Cl)c1 | 6.65%
CCCn1c(Cc2ccccc2)nnc1SC(C)C(=O)NC1CC1 (stereo not drawn) | 9.83%
CC1CCN(C(=O)CN(c2cccc(F)c2)S(C)(=O)=O)CC1 | -1.32%
C=C(C)CN(CC)C(=O)COc1ccc(S(=O)(=O)Nc2ccc(OC)cc2)cc1 | 4.88%
Cc1csc(NC(=O)CSc2ccc3nnc(-c4ccncc4)n3n2)n1 | 6.6%
COc1cc2c(-c3ccc4cc[nH]c4c3)c(-c3ccc(C#N)cc3)oc(=O)c2cc1OC | 13.1%
O=C(Nc1nnc(SCC(=O)N2CCCc3ccccc32)s1)c1cccc2ccccc12 | 13.9%
O=C(COC(=O)C1CC1)NCCNC(=O)COC(=O)C1CC1 | 15.1%
CC(C)[C@H](NC(=O)[C@H](Cc1ccccc1)n1c(=O)[nH]c2ccccc2c1=O)C(=O)N1CCC[C@H]1C(=O)O | 13.8%
O=[N+]([O-])c1cc(C(F)(F)F)cc([N+](=O)[O-])c1N1CCN(S(=O)(=O)c2ccccc2)CC1 | 6.1%
Cc1cc(C)c(/C([O-])=C(/C(=S)Nc2ccc(SC(F)F)cc2)[n+]2ccccc2)cc1C | 15.8%
COc1ccc(-c2cc3c(=O)n(CC(=O)NCc4cccnc4)ncn3n2)cc1 | -4.91%
CN(C(=O)COc1ncnc2c1cnn2-c1ccccc1)C1CCCCC1 | 8.86%

SMILES | hERG current change (%, negative = inhibition) at 1uM
Cc1ccc2c(c1)c1c(n2C)C(=O)CCC1 | 9.72%
CCCCn1c(C)cc(C)c(S(=O)(=O)c2ccccc2C)c1=O | 11.8%
O=c1c(Cl)c(NCc2ccco2)cnn1C12CC3CC(CC(C3)C1)C2 | 4.54%
CCOC(=O)N1CCN(C(=O)c2ccc(Cl)nc2)CC1 | -1.96%
CN(Cc1ccccc1)C(=O)CSc1nnc(-c2ccco2)n1-c1ccccc1 | -49%
COc1cc2c(cc1OC)CN(C(=O)NS(=O)(=O)c1ccc(C)cc1)CC2 | -2.15%
O=C1c2ccccc2C(O)(c2ccccc2)N1CCc1ccccc1 (stereo not drawn) | 8.98%
CCn1c2ccccc2c2cc(NC(=O)CCCN3C(=O)CCC3=O)ccc21 | 10.7%
CC(NC(=O)/C(=C\c1ccco1)NC(=O)c1ccccc1Br)C(=O)O (stereo not drawn) | 13.4%
CC(C)[C@@H]1COC(c2cccc(C3=N[C@H](C(C)C)CO3)n2)=N1 | 11.1%
Cn1c(-c2cccc([N+](=O)[O-])c2)[n+](C)c2ccccc21.[Cl-] | 12.7%
COc1ccc(NC(=O)CN2C(=O)NC(C)(c3ccc(C)cc3)C2=O)c([N+](=O)[O-])c1 (stereo not drawn) | 5.57%
O=C(NCCCN1CCOCC1)c1ccc(Cl)cc1[N+](=O)[O-] | 10.7%
Cc1ccccc1NC(=S)N(CCN1CCCCC1)Cc1ccco1 | 2.1%
CN(c1ccccc1)S(=O)(=O)c1cccc(NC(=O)COc2ccccc2)c1 | 9.45%
COC(=O)c1c(NC(=O)C2CCCCC2)sc2c1CCN(C(C)C)C2.Cl | 11.3%
CC(NCc1ccncc1)C12CC3CC(CC(C3)C1)C2.Cl (stereo not drawn) | 12.6%
Cc1ccc2cc(NC(=O)CC(CC(=O)O)c3ccccc3)ccc2n1 (stereo not drawn) | 5.28%
Cc1cccc2cc(C#N)c(N3CCN(C)CC3)nc12 | -9.93%
CCCCn1c(SCc2nc3ccccc3s2)nc2cc(S(N)(=O)=O)ccc21 | -8.76%
O=C(Nc1ncc(Cc2cccc(Cl)c2Cl)s1)c1ccc([N+](=O)[O-])cc1 | -6.49%
C/C(=N\NC(=O)c1ccc(C)cc1)C1C(=O)c2ccccc2C1=O | 12.1%
O=C(Nc1nnc(C2CC2)o1)c1ccc(S(=O)(=O)N2CCCCC2)cc1 | 14.2%
COc1ccc(/C=C/C(=O)N(C)C2(C)CCS(=O)(=O)C2)cc1 (stereo not drawn) | 6.09%
O=[N+]([O-])c1cc(Cl)ccc1Sc1ccccn1 | 12.6%
CC(C)CCN1C(=O)c2ccc(C(=O)Nc3cccc(S(N)(=O)=O)c3)cc2C1=O | 9.51%
COc1ccc(-c2nc(NC(=O)CSc3nnc4ccccn34)ns2)cc1 | 8.6%
